According to the supplement of paper PMC11876631:
± gives the standard deviation of the averaged measurements. Laboratory Escherichia coli strains with one amino-acid change in an essential protein, pooled on minimal glucose agar with carbenicillin or gentamicin at twice the control MIC (plus kanamycin and chloramphenicol for the plasmids), 48 h. Fold change of barcode share against drug-free plates; higher = less susceptible. Active = above 20 in both replicates (the paper's putatively resistant). '<' = one read or none on drug, '>' = one read or none on a drug-free plate. Shares are relative, so most strains fall below 1 when a few take over. Listed are strains with at least 15 reads on both drug-free plates, and hits; most hits rest on fewer reference reads. Replicate rank correlation about 0.5. Edits are read from barcodes.

B1: yqgF; numbered along this chain (parent)
chain: MSGTLLAFDFGTKSIGVAVGQRITGTARPLPAIKAQDGTPDWNIIERLLKEWQPDEIIVGLPLNMDGTEQPLTARARKFANRIHGRFGVEVKLHDERLSTVEARSGLFEQGGYRALNKGKVDSASAVIILESYFEQGY
B2: nadC; numbered along this chain (parent)
chain: MPPRRYNPDTRRDELLERINLDIPGAVAQALREDLGGTVDANNDITAKLLPENSRSHATVITRENGVFCGKRWVEEVFIQLAGDDVTIIWHVDDGDVINANQSLFELEGPSRVLLTGERTALNFVQTLSGVASKVRHYVELLEGTNTQLLDTRKTLPGLRSALKYAVLCGGGANHRLGLSDAFLIKENHIIASGSVRQAVEKASWLHPDAPVEVEVENLEELDEALKAGADIIMLDNFETEQMREAVKRTNGKALLEVSGNVTDKTLREFAETGVDFISVGALTKHVQALDLSMRFR
B3: thrC; numbered along this chain (parent)
chain: MKLYNLKDHNEQVSFAQAVTQGLGKNQGLFFPHDLPEFSLTEIDEMLKLDFVTRSAKILSAFIGDEIPQEILEERVRAAFAFPAPVANVESDVGCLELFHGPTLAFKDFGGRFMAQMLTHIAGDKPVTILTATSGDTGAAVAHAFYGLPNVKVVILYPRGKISPLQEKLFCTLGGNIETVAIDGDFDACQALVKQAFDDEELKVALGLNSANSINISRLLAQICYYFEAVAQLPQETRNQLVVSVPSGNFGDLTAGLLAKSLGLPVKRFIAATNVNDTVPRFLHDGQWSPKATQATLSNAMDVSQPNNWPRVEELFRRKIWQLKELGYAAVDDETTQQTMRELKELGYTSEPHAAVAYRALRDQLNPGEYGLFLGTAHPAKFKESVEAILGETLDLPKELAERADLPLLSHNLPADFAALRKLMMNHQ
B4: fes; numbered along this chain (parent)
chain: MTALKVGSESWWQSKHGPEWQRLNDEMFEVTFWWRDPQGSEEYSTIKRVWVYITGVTDHHQNSQPQSMQRIAGTNVWQWTTQLNANWRGSYCFIPTERDDIFSVPSPDRLELREGWRKLLPQAIADPLNLQSWKGGRGHAVSALEMPQAPLQPGWDCPQAPEIPAKEIIWKSERLKKSRRVWIFTTGDATAEERPLAVLLDGEFWAQSMPVWPVLTSLTHRQQLPPAVYVLIDAIDTTHRAHELPCNADFWLAVQQELLPLVKAIAPFSDRADRTVVAGQSFGGLSALYAGLHWPERFGCVLSQSGSYWWPHRGGQQEGVLLEKLKAGEVSAEGLRIVLEAGIREPMIMRANQALYAQLHPIKESIFWRQVDGGHDALCWRGGLMQGLIDLWQPLFHDRS

Variants of: B1
Test: barcode share on antibiotic plates over drug-free plates; higher = less susceptible
Conditions: with Escherichia coli (laboratory strain); antibiotic: carbenicillin; 2× MIC (3.1 µg/mL)
Procedure: (§1)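 A pool of E. coli strains, each edited to carry one amino-acid change in an essential protein, was grown for 48 h on minimal glucose agar with or without antibiotic; strain barcodes were sequenced; mean of two replicates.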

| Variant | fold change of barcode share |
| --- | --- |
| L6P | 0.271 ± 0.11 |
| V17P | 0.227 ± 0.0063 |
| V19W | 0.307 ± 0.1 |
| V19Q | 0.65 ± 0.27 |
| V17A | 0.218 ± 0.0076 |
| V17Q | 0.327 ± 0.085 |
| V19A | 0.251 ± 0.18 |
| L6W | 0.318 ± 0.087 |
| L6A | 0.421 ± 0.075 |
| I15A | 0.432 ± 0.097 |
| I15D | 0.585 ± 0.031 |
| I15Q | 0.303 ± 0.017 |

Same assay, conditions: with Escherichia coli (laboratory strain); antibiotic: gentamicin; 2× MIC (MIC 0.45 µg/mL)

| Variant | fold change of barcode share |
| --- | --- |
| L6P | < 0.00848 |
| V17P | 0.0133 ± 0.0094 |
| V19W | 0.00704 ± 0.0041 |
| V19Q | 0.0121 ± 0.0086 |
| V17A | 0.0141 ± 0.012 |
| V17Q | < 0.00295 |
| V19A | < 0.00812 |
| L6W | < 0.00385 |
| L6A | 0.00706 ± 0.00015 |
| I15A | 0.00453 ± 0.0027 |
| I15D | 0.257 ± 0.0034 |
| I15Q | 0.0135 ± 0.013 |
| L130W | < 0.00889 |
| I83Q | 0.0306 ± 0.017 |
| I83A | < 0.0175 |

Variants of: B2
Test: as above
Conditions: with Escherichia coli (laboratory strain); antibiotic: carbenicillin; 2× MIC (3.1 µg/mL)
Procedure: as §1

| Variant | fold change of barcode share |
| --- | --- |
| V60A | 0.27 ± 0.021 |
| V60W | 0.447 ± 0.29 |
| L104P | 0.49 ± 0.016 |
| L104Q | 0.945 ± 0.057 |
| L114A | 0.519 ± 0.045 |
| L114D | 5.17 ± 0.94 |
| L114P | 4.11 ± 0.3 |
| L114Q | 0.398 ± 0.042 |
| V125A | 0.388 ± 0.13 |
| L128A | 0.623 ± 0.5 |
| L128D | 0.884 ± 0.37 |
| L128P | 0.956 ± 0.49 |
| L128Q | 0.501 ± 0.23 |
| L128W | 0.613 ± 0.26 |
| V131A | 0.506 ± 0.13 |
| V131D | 0.9971 ± 0.0039 |
| V131P | 0.504 ± 0.031 |
| V131Q | 0.457 ± 0.23 |
| V131W | 0.607 ± 0.23 |
| V167A | 0.739 ± 0.19 |
| V167D | 1.65 ± 0.13 |
| V167Q | 0.7103 ± 0.0064 |
| V167W | 0.399 ± 0.14 |

Same assay, conditions: with Escherichia coli (laboratory strain); antibiotic: gentamicin; 2× MIC (MIC 0.45 µg/mL)

| Variant | fold change of barcode share |
| --- | --- |
| V60A | 0.00792 ± 0.0077 |
| V60W | < 0.00728 |
| L104P | 0.0106 ± 0.0058 |
| L104Q | 5.1 ± 5.5 |
| L114A | 0.0216 ± 0.026 |
| L114Q | 0.0113 ± 0.013 |
| V125A | 0.015 ± 0.0086 |
| L128A | 0.0458 ± 0.057 |
| L128D | 0.122 ± 0.041 |
| L128P | 0.0977 ± 0.12 |
| L128Q | 0.0329 ± 0.043 |
| L128W | 0.00609 ± 0.0015 |
| V131A | 1.62 ± 2.3 |
| V131P | 0.0183 ± 0.017 |
| V131Q | 0.0537 ± 0.071 |
| V131W | 0.0273 ± 0.03 |
| V167A | 0.0197 ± 0.019 |
| V167Q | 0.0155 ± 0.006 |
| V167W | 0.0117 ± 0.0051 |
| V125P | < 0.0143 |
| I278A | 0.0327 ± 0.027 |

Variants of: B3
Test: as above
Conditions: with Escherichia coli (laboratory strain); antibiotic: carbenicillin; 2× MIC (3.1 µg/mL)
Procedure: as §1

| Variant | fold change of barcode share |
| --- | --- |
| L156W | 0.313 ± 0.13 |
| L130A | 0.554 ± 0.28 |
| L374P | 0.563 ± 0.065 |
| V279D | 0.912 ± 0.18 |
| V279Q | 1.52 ± 0.16 |
| V279P | 1.24 ± 0.58 |
| V279A | 0.839 ± 0.18 |
| L220A | 0.436 ± 0.19 |
| M117A | 0.274 ± 0.088 |
| L220W | 0.638 ± 0.041 |
| M117W | 0.261 ± 0.02 |
| L374W | 0.994 ± 0.29 |
| L130P | 0.575 ± 0.16 |
| V279W | 0.842 ± 0.15 |
| L130D | > 32.8 [active] |
| L130Q | 0.33 ± 0.048 |
| L220Q | 0.463 ± 0.12 |

Same assay, conditions: with Escherichia coli (laboratory strain); antibiotic: gentamicin; 2× MIC (MIC 0.45 µg/mL)

| Variant | fold change of barcode share |
| --- | --- |
| L130A | 0.0177 ± 0.014 |
| V279D | 0.0105 ± 0.0054 |
| V279Q | 0.023 ± 0.012 |
| V279P | 0.015 ± 0.0071 |
| V279A | 0.0353 ± 0.046 |
| M117A | < 0.0169 |
| M117W | < 0.0196 |
| L374W | 0.0155 ± 0.012 |
| L130P | 0.0227 ± 0.013 |
| V279W | 0.0169 ± 0.013 |
| L130Q | 0.0242 ± 0.0021 |
| L220Q | < 0.0206 |
| L118Q | < 0.0219 |
| M117Q | < 0.0164 |
| L118A | < 0.0193 |
| L374A | 0.0298 ± 0.024 |

Variants of: B4
Test: as above
Conditions: with Escherichia coli (laboratory strain); antibiotic: carbenicillin; 2× MIC (3.1 µg/mL)
Procedure: as §1

| Variant | fold change of barcode share |
| --- | --- |
| I94A | 1.41 ± 1.1 |

Same assay, conditions: with Escherichia coli (laboratory strain); antibiotic: gentamicin; 2× MIC (MIC 0.45 µg/mL)

| Variant | fold change of barcode share |
| --- | --- |
| I94A | 0.023 ± 0.011 |
